PubChem BioAssay AID445 (National Center for Advancing Translational Sciences (NCATS), 2006)
About 40 (0.04%) of roughly 110,000 compounds were called active. This list was built around the results that the source calls inconclusive (neither active nor inactive); the mix of calls is not that of the screen. The call rests on the fitted dose curve; in most records, active means well fitted curve in the direction sought with a large enough effect in the signal ratio (not every such curve was filed as active); inconclusive means small, poorly fitted or top-dose-only effect, or a change in a side signal; inactive means flat fitted curve, though single readings scatter; the % refers to the signal ratio. Potencies beside an inconclusive call are fits to weak or partial responses and may not hold up.

Experiment: IkB Signaling;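 on IkBa stabilization activation: 0% = basal untreated cells and 100% = reference inhibitor full response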
Settings: ABC-DLBCL IkBa-CBG/CBR dual luciferase ratio (green luciferase fused to IkBa over red control in OCI-Ly3 lymphoma cells), 4 h; IkBa stabilization activation: at 57.1 µM (top of the series), scaled: untreated 0%, proteasome inhibitor 100% unless noted
Method in brief: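 In this assay, an IκBα–CBG68 fusion accumulates when IKK-driven degradation is blocked; native CBR normalizes for cell number. OCI-Ly3 cells were treated 4 h with compound and doxycycline, then green and red light read after Chroma-Glo addition.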
Potency means the concentration at half of the fitted maximal effect.

SMILES | IkBa stabilization activation | Potency
C#C[C@@]1(O)CC[C@H]2[C@H]3CCC4=Cc5oncc5C[C@]4(C)[C@@H]3CC[C@@]21C | inactive | 
COc1cc(NC(=O)NCCn2nnc3cc(S(=O)(=O)N(C)C)ccc32)cc(OC)c1 | inactive | 
Cc1ccc(Cl)cc1NC(=O)c1ccc2snnc2c1 | inactive | 
COc1ccc2c(c1)C(=O)N(c1ccccc1OC)C(=O)C2(C)C | inactive | 
O=C(O)CCC(=O)c1ccc2c(c1)OCCO2 | inactive | 
CCOC(=O)c1c(NC(=O)c2ccc(S(=O)(=O)N3CCCC(C)C3)cc2)sc2c1CCN(C(C)C)C2 (stereo unspecified) | inconclusive: 4.9% [signal inhibitor] | 
CC(=O)Nc1cccc(NC(=O)Nc2ccc(C(C)=O)cc2)c1 | inactive | 
CCOC(=O)c1cc(-c2ccccc2)n(-c2cccc(C(=O)N(CC)c3ccccc3)c2)c1C | inactive | 
Cc1cc(C)cc(NC(=O)C(=O)NC(C)c2ccccc2)c1 (stereo unspecified) | inconclusive: -2.05% [signal inhibitor] | 
CC(C)c1ccc2oc(-c3cccc(NC(=O)c4ccc5c(c4)OCCO5)c3)nc2c1 |  | inconclusive: 1580 nM [signal inhibitor, partial curve]
Cc1ccc(-n2c(SCC(=O)Nc3cccc(F)c3)nc3c(oc4ccccc43)c2=O)cc1C | inconclusive: 10.5% [signal inhibitor] | 
O=C(O)C(F)(F)S(=O)(=O)O | inconclusive: 4.07% [signal activator] | 
COc1ccc(N2CCN(C(=O)NCc3noc4ccccc34)CC2)cc1 | inactive | 
Cc1ccc2oc3c(c(=O)c2c1)C(c1cccc(O)c1)N(Cc1ccccc1Cl)C3=O (stereo unspecified) | inconclusive: 9.71% [signal inhibitor] | 
O=C(Cc1cccs1)NC1CC(=O)N(c2ccc(Cl)cc2)C1 (stereo unspecified) | inactive | 
CC(C)Sc1ncc(Cl)c(C(=O)N(Cc2ccc(F)cc2)C2CCS(=O)(=O)C2)n1 (stereo unspecified) | inconclusive: 1.81% [signal inhibitor] | 
CCOC(=O)C(C(C)=O)c1c(Br)c(O)c(O)c2c(C(=O)c3ccc(C)cc3)coc12 (stereo unspecified) | inconclusive: 7.32% [signal inhibitor] | 
CC1=C(C(=O)Nc2ccc(C)cc2)C(c2ccc(Cl)cc2)n2nnnc2N1 (stereo unspecified) | inconclusive: 2.58% [signal inhibitor] | 
Cc1ccc(NC(=O)CN2C(=O)C(C)(C)c3ccccc32)cc1 | inconclusive: 1.92% [signal inhibitor] | 
CN(C)c1ncc2nc(-c3cccs3)c(=O)n(C3CC3)c2n1 | inactive: -4.39% [at 11.4 µM, scaled: untreated 0%, proteasome inhibitor 100%] | 
Cc1c(-c2nc(N)nc(C3CC3)c2C)nc(N)nc1C1CC1 | inactive: 1.07% [at 11.4 µM, scaled: untreated 0%, proteasome inhibitor 100%] | 
